We go through 44 molecules from article PMC4336329 (PLoS ONE, 2015).

About 2,200 (0.71%) of roughly 310,000 compounds showed an effect of 50% or more. Effects have a minus sign here. Some of the results follow.

For this assay, the target named is human ether-à-go-go-related gene (hERG) potassium channel (human, UniProt Q12809). The assay is described as follows: primary screen, population patch clamp on CHO cells stably expressing hERG.
Sequence of human ether-à-go-go-related gene (hERG) potassium channel (Q12809 whole entry, looked up): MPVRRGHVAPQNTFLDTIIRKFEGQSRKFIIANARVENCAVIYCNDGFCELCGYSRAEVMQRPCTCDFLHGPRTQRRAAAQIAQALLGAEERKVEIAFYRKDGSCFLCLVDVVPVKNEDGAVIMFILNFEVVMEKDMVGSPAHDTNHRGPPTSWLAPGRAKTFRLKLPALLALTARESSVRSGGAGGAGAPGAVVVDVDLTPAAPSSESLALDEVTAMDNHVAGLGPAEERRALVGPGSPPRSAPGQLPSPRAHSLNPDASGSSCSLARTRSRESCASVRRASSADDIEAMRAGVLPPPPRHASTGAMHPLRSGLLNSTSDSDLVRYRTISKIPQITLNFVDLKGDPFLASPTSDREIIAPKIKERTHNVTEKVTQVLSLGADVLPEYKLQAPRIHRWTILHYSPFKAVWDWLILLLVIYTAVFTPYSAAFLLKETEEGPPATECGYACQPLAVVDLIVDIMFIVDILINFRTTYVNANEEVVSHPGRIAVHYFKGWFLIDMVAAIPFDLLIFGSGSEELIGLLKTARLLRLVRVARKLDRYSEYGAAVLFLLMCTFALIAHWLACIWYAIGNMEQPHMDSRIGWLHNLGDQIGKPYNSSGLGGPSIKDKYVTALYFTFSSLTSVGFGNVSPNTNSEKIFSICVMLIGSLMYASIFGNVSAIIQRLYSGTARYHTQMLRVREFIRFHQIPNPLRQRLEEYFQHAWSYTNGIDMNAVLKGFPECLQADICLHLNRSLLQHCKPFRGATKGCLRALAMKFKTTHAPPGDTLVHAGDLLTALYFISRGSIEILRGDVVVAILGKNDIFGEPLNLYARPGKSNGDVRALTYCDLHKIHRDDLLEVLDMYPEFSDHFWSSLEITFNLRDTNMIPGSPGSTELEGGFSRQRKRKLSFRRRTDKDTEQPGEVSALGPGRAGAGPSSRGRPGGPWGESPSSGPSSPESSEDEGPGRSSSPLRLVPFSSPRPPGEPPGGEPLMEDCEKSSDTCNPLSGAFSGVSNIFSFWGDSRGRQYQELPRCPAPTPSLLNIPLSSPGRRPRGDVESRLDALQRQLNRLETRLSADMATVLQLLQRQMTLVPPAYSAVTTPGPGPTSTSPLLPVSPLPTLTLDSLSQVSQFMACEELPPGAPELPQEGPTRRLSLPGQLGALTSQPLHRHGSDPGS
`O=S(=O)(/N=C(/Nc1ccccn1)c1ccccc1)c1ccc(F)cc1`: the “hERG current change (%, negative = inhibition) at 1uM” value was determined as 12.8%. The figure for `CC1(C)C=Cc2c(ccc3c2OC[C@@H](c2ccc(O)cc2O)C3)O1` is 5.48%; for `CC(C)(CC(=O)N1CCN(c2ccc(Cl)cc2)CC1)CC1=NS(=O)(=O)c2ccccc2N1` it is -19.6%. The figure for `CCC(=O)N(Cc1ccco1)c1nc(-c2cc(OC)ccc2OC)cs1` is 12.4%; for `O=C(O)C(F)(F)F.c1cn2c(NC3CCCCC3)c(-c3ccc(SC4CCCCC4)cc3)nc2cn1` it is 6.83%; for `CC1=C(C(=O)Nc2cc(C(=O)N3CCN(c4cccc(C)c4C)CC3)ccc2C)SCCO1` it is 11.9%. The figure for `COc1cccc(C(=O)OCCN2CCCCC2)c1.Cl` is -2.55%. As to `O=C1CC(O)(C(F)F)Oc2ccc3ccccc3c21` (centres unmarked), the “hERG current change (%, negative = inhibition) at 1uM” value worked out at 6.09%. For the molecule `COCCN(CC(=O)Nc1cccc(C)c1)S(=O)(=O)c1ccc(S(=O)(=O)N2CCCC2)cc1`, the “hERG current change (%, negative = inhibition) at 1uM” value is on record as -4.44%.

In the case of `COc1cc(OC)c(OC)cc1CN1CCN(C(=O)c2cccc3ccccc23)CC1.O=C(O)C(=O)O`, the “hERG current change (%, negative = inhibition) at 1uM” value was determined as 13%. The figure for `COc1ccc(/C=C/c2nc3sc4c(c3c(=O)o2)CCC4)cc1` is 6.24%; for `COc1ccccc1N(C)S(=O)(=O)c1ccc(Cl)c(C(=O)Nc2ccncc2)c1` it is -14.4%. The figure for `CCOP(=O)(/C(C#N)=C(\C)O)c1ccccc1` (centres unmarked) is 4.29%; for `CC(c1cccnc1)N(C(=O)Nc1ccccc1)C1CCCCC1` (centres unmarked) it is 9.28%; for `O=C(CCN1C(=O)NC2(CCCC2)C1=O)Nc1cccc(S(=O)(=O)N2CCOCC2)c1` it is 13.9%.

`Cn1cccc1/C=N/NC(=O)C(O)c1ccccc1` (centres unmarked): the “hERG current change (%, negative = inhibition) at 1uM” value is on record as 9.98%. Then `O=C(CSc1ccc(-c2ccncc2)nn1)c1ccccc1`, with 28.3%. The figure for `NCCCC[C@H]1CNC(=S)N1CCCCC1CCCCC1` is -1.35%.

For `CCN(c1ccc(NC(=O)COC(=O)c2ccc(C)c(S(=O)(=O)N3CCOCC3)c2)cc1)C(C)C`, the “hERG current change (%, negative = inhibition) at 1uM” value turned out to be 12.7%.

As to `CC(C)(C)[C@]1(O)C[C@@H]2OC(=O)C[C@@]23C(=O)O[C@@H]2OC(=O)[C@H](O)[C@]213`, the “hERG current change (%, negative = inhibition) at 1uM” value stood at 16.7%.

In the case of `Cc1cc(C)cc(N(CC(=O)NCC2CCCO2)C(=O)CCC(=O)Nc2nccs2)c1` (centres unmarked), the “hERG current change (%, negative = inhibition) at 1uM” value is recorded as 11.3%.

Consider `COc1ccc(-c2nc(C#N)c(NCCCN(C)C)o2)cc1OC`, for which the “hERG current change (%, negative = inhibition) at 1uM” value is reported as 2.47%.

For `O=C(NCC(c1cccs1)N1CCOCC1)c1cc([N+](=O)[O-])ccc1Cl` (centres unmarked), the “hERG current change (%, negative = inhibition) at 1uM” value came out at 1.28%. Then `CCO[C@H]1OC(C(=O)O)=C[C@@H](C)[C@@H]1CCCO`, with 12.7%; and `CCOc1cccc(C(=O)NNC(=O)CCC(=O)O)c1`, with 11.2%; and `O=C(O)C[C@H]1c2cc(C(F)(F)F)ccc2S(=O)(=O)N1C1CCN(Cc2ccccc2)CC1`, with 8.77%. The figure for `O=[N+]([O-])c1ccccc1N=Nc1ccc(O)cc1` is 12.1%; for `CN1C(=O)c2ccccc2N(C)C1c1ccccc1Cl` (centres unmarked) it is 17.4%.

Take `O=C(Cn1nnc2ccccc21)c1ccc(Br)cc1`: the “hERG current change (%, negative = inhibition) at 1uM” value worked out at 9.61%. The figure for `CCCCC(=O)NC(=S)Nc1ccccc1C(=O)Nc1ccccc1` is -4.33%. For the molecule `Cc1cccn2cc(CSc3ccccc3N)nc12`, the “hERG current change (%, negative = inhibition) at 1uM” value worked out at 2.65%. As for `Cc1n[nH]c(C)c1S(=O)(=O)N1CCCC(C(=O)N2CCN(c3ccc(Cl)cc3)CC2)C1` (centres unmarked), the “hERG current change (%, negative = inhibition) at 1uM” value is recorded as -47.1%. In the case of `CCOc1ccc(N(CC(=O)NC(C)C)C(=O)CCC(=O)Nc2ccccn2)cc1`, the “hERG current change (%, negative = inhibition) at 1uM” value was 9.6%. The figure for `COc1cccc(NC(=O)CSc2nc3ccccc3c(=O)n2C)c1` is 9.06%; for `O=C(NC(=S)Nc1ccccc1Cl)c1cncc(C#Cc2ccccc2)c1` it is 14.6%. The figure for `Cc1ccc(NC(=O)CSc2nnc(-c3ccccn3)n2N)cc1F` is -9.31%; for `CC1C=CCC2C(=O)N(c3ccc(OC(=O)c4cccs4)cc3)C(=O)C12` (centres unmarked) it is 12.1%.

`COc1ccc2nc(NC(=O)c3cccs3)sc2c1`: the “hERG current change (%, negative = inhibition) at 1uM” value worked out at 12.4%. The figure for `COc1ccc(NC(=O)Cn2c(C)cc(=O)c3cccc(OC)c32)cc1` is 10.4%; for `O=C(O)c1ccccc1C(=O)Nc1ccc(-c2csc(-c3ccccc3)n2)cc1` it is 14.3%. The figure for `CN(C)C(CNC(=O)c1ccco1)c1cccs1` (centres unmarked) is 7.62%; for `COc1ccc(-c2noc(CSc3nc4ccccc4c(=O)n3-c3ccccc3)n2)cc1OC` it is 11.8%. The figure for `COCCNc1oc(-c2ccco2)nc1S(=O)(=O)c1ccccc1` is 8.44%; for `CCCCC1CCC(c2nc(-c3cccnc3)no2)CC1` (centres unmarked) it is -2.41%.
